Assay results taken from the supplement of paper PMC8728848.
Some of the results follow.

Assays:
Assay in all cases: glycan array binding signal (z-score within array); higher = stronger binding
Conditions in all cases: glycan notation: IUPAC condensed, linker removed
[1] = target: Neu5Ac(a2-6)GlcNAc(b1-4)GlcNAc
How it was run: (§1)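 Arrays were curated from the Consortium for Functional Glycomics database, 3228 in total, and kept only where the protein sequence was available. Binding is expressed as a within-array Z-score. This score was averaged across arrays of the same protein sequence at different concentrations or buffers and across linkers, and negative values can be read as non-binding.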

[2] = target: Neu5Ac(a2-6)GlcNAc(b1-4)GlcNAc(b1-4)GlcNAc
How it was run: as §1

[3] = target: Neu5Ac(a2-8)Neu5Ac
How it was run: as §1

[4] = target: Neu5Ac(a2-8)Neu5Ac(a2-3)Gal(b1-3)GalNAc(b1-4)[Neu5Ac(a2-3)]Gal(b1-4)Glc
How it was run: as §1

[5] = target: Neu5Ac(a2-8)Neu5Ac(a2-3)Gal(b1-3)GalNAc(b1-4)[Neu5Ac(a2-8)Neu5Ac(a2-3)]Gal(b1-4)Glc
How it was run: as §1

[6] = target: Neu5Ac(a2-8)Neu5Ac(a2-3)Gal(b1-4)Glc
How it was run: as §1

[7] = target: Neu5Ac(a2-8)Neu5Ac(a2-3)Gal(b1-4)GlcNAc
How it was run: as §1

[8] = target: Neu5Ac(a2-8)Neu5Ac(a2-3)[Gal(b1-3)GalNAc(b1-4)]Gal(b1-4)Glc
How it was run: as §1

[9] = target: Neu5Ac(a2-8)Neu5Ac(a2-3)[GalNAc(b1-4)]Gal(b1-4)Glc
How it was run: as §1

[10] = target: Neu5Ac(a2-8)Neu5Ac(a2-8)Neu5Ac
How it was run: as §1

[11] = target: Neu5Ac(a2-8)Neu5Ac(a2-8)Neu5Ac(a2-3)Gal(b1-4)Glc
How it was run: as §1

[12] = target: Neu5Ac(a2-8)Neu5Ac(a2-8)Neu5Ac(a2-3)[Gal(b1-3)GalNAc(b1-4)]Gal(b1-4)Glc
How it was run: as §1

[13] = target: Neu5Ac(a2-8)Neu5Ac(a2-8)Neu5Ac(a2-3)[GalNAc(b1-4)]Gal(b1-4)Glc
How it was run: as §1

[14] = target: Neu5Ac(a2-8)Neu5Ac(a2-8)Neu5Ac(a2-8)Neu5Ac(a2-3)[GalNAc(b1-4)]Gal(b1-4)Glc
How it was run: as §1

[15] = target: Neu5Ac(a2-8)Neu5Gc(a2-3)Gal(b1-4)GlcNAc
How it was run: as §1

[16] = target: Neu5Ac(b2-6)Gal(b1-4)GlcNAc
How it was run: as §1

[17] = target: Neu5Ac(b2-6)GalNAc
How it was run: as §1

[18] = target: Neu5Ac9Ac(a2-3)Gal(b1-3)GlcNAc
How it was run: as §1

[19] = target: Neu5Ac9Ac(a2-3)Gal(b1-4)GlcNAc
How it was run: as §1

[20] = target: Neu5Ac9Ac(a2-6)Gal(b1-4)GlcNAc
How it was run: as §1

[21] = target: Neu5Gc(a2-3)Gal(b1-3)GlcNAc
How it was run: as §1

[22] = target: Neu5Gc(a2-3)Gal(b1-3)[Fuc(a1-4)]GlcNAc
How it was run: as §1

[23] = target: Neu5Gc(a2-3)Gal(b1-4)Glc
How it was run: as §1

[24] = target: Neu5Gc(a2-3)Gal(b1-4)GlcNAc
How it was run: as §1

[25] = target: Neu5Gc(a2-3)Gal(b1-4)GlcNAc(b1-3)Gal(b1-4)GlcNAc(b1-2)Man(a1-3)[Neu5Gc(a2-3)Gal(b1-4)GlcNAc(b1-3)Gal(b1-4)GlcNAc(b1-2)Man(a1-6)]Man(b1-4)GlcNAc(b1-4)GlcNAc
How it was run: as §1

[26] = target: Neu5Gc(a2-3)Gal(b1-4)[Fuc(a1-3)]GlcNAc
How it was run: as §1

[27] = target: Neu5Gc(a2-6)Gal(b1-4)GlcNAc
How it was run: as §1

[28] = target: Neu5Gc(a2-6)GalNAc
How it was run: as §1

[29] = target: Neu5Gc(a2-8)Neu5Ac(a2-3)Gal(b1-4)GlcNAc
How it was run: as §1

[30] = target: Neu5Gc(a2-8)Neu5Gc(a2-3)Gal(b1-4)GlcNAc
How it was run: as §1

[31] = target: Neu5Gc(a2-8)Neu5Gc(a2-3)Gal(b1-4)GlcNAc(b1-3)Gal(b1-4)GlcNAc
How it was run: as §1

[32] = target: Neu5Gc(a2-8)Neu5Gc(a2-6)Gal(b1-4)GlcNAc
How it was run: as §1

[33] = target: Neu5Gc(b2-6)Gal(b1-4)GlcNAc
How it was run: as §1

B1: Epa23 (Candida glabrata) (protein)
chain: MGSSHHHHHHSSGLVPRGSHMIPNPFEGTINNFPSGCSPNHGLYNRGLTMELYNYSYIHPQSIQSYFNTSTLKKMEKGQCWDPSYLDVNYPRTGYKTHNRFAKVNGIDGILDFEFNPTRSCVPSKGQLPQNYNYPLQFTLSNFTMLLYGYFKPKVTAKHTFTIFADDLLFLNFGAGNAFDCCQQQDTIDDFGNYQAYALWGSDTQQNTLTVNLDANIYYPIRMFYNNRDFKGALNMYFTTDESNTKINDFSGYLFNIPDSSEGCPAHISYETECGNVSG
For B1, the “glycan array binding signal (z-score)” value [1] was -0.092, the “glycan array binding signal (z-score)” value [2] was -0.232 and the “glycan array binding signal (z-score)” value [3] was -0.353. For the same binder, the “glycan array binding signal (z-score)” value [4] was -0.233, the “glycan array binding signal (z-score)” value [5] was 0.073 and the “glycan array binding signal (z-score)” value [6] was -0.193. For the same binder, the “glycan array binding signal (z-score)” value [7] was -0.277, the “glycan array binding signal (z-score)” value [8] was -0.093 and the “glycan array binding signal (z-score)” value [9] was -0.297. The “glycan array binding signal (z-score)” value [10] was -0.188, the “glycan array binding signal (z-score)” value [11] was -0.287 and the “glycan array binding signal (z-score)” value [12] was -0.281. The “glycan array binding signal (z-score)” value [13] was -0.215, the “glycan array binding signal (z-score)” value [14] was -0.195 and the “glycan array binding signal (z-score)” value [15] was -0.234. For the same binder, the “glycan array binding signal (z-score)” value [16] was -0.22, the “glycan array binding signal (z-score)” value [17] was -0.205 and the “glycan array binding signal (z-score)” value [18] was -0.244. For the same binder, the “glycan array binding signal (z-score)” value [19] was -0.225, the “glycan array binding signal (z-score)” value [20] was -0.239 and the “glycan array binding signal (z-score)” value [21] was -0.228. For the same binder, the “glycan array binding signal (z-score)” value [22] was -0.199, the “glycan array binding signal (z-score)” value [23] was -0.215 and the “glycan array binding signal (z-score)” value [24] was -0.274. For the same binder, the “glycan array binding signal (z-score)” value [25] was -0.137, the “glycan array binding signal (z-score)” value [26] was -0.228 and the “glycan array binding signal (z-score)” value [27] was -0.188. The “glycan array binding signal (z-score)” value [28] was -0.101, the “glycan array binding signal (z-score)” value [29] was -0.22 and the “glycan array binding signal (z-score)” value [30] was -0.215. For the same binder, the “glycan array binding signal (z-score)” value [31] was -0.251, the “glycan array binding signal (z-score)” value [32] was -0.235 and the “glycan array binding signal (z-score)” value [33] was -0.194.
